# Variants at the background level are over-represented here.
# B1: tRNA (parent)
# chain: CUCUCGGUAGCCAAGUUGGUUUAAGGCGCAAGACUUUAAUUUAUCACUACGAAAUCUUGAGAUCGGGCGUUCGACUCGCCCCCGGGAGAUUUUUUCCUCGAGCAA
# Variants of: B1
# Assay: nonsense suppression (GFP-seq) (ratio to wild type); higher = more function; SUP4oc tRNA, yeast GFP reporter sort-seq
# How it was run: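 Each variant's nonsense suppression (GFPSEQ) is a cell-share-weighted bin median GFP/RFP relative to the unmutated parent tRNA. Yeast with genome-integrated tRNA variants from a ~3% random-mutation library, a galactose-driven GFP ochre reporter and RFP were grown in raffinose/galactose medium with 80 mg/L adenine, then sorted into GFP/RFP bins for Illumina sequencing. Variants needed ≥100 reads and ≥30 cells.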
row,Variant,nonsense suppression
1,U2C A23G,0.0274
2,U2C A23U,≤ 0.026
3,U2G A23C,≤ 0.026
4,U2G C75A G88C,≤ 0.026
5,U2C C72A,≤ 0.026
6,U2C A74C,≤ 0.026
7,U2C U71A U76A,≤ 0.026
8,U2G U4A U8C C75G C83A,≤ 0.026
9,U2C G15U G28U A31C,≤ 0.026
10,U2G G19U C72U,≤ 0.026
11,C3A A33U A87C,≤ 0.026
12,U2C C3A,≤ 0.026
13,C3A C11U G32A U58C A60C,≤ 0.026
14,U2G C3A U4C U35G,≤ 0.026
15,U2C G6U A31C U71G A74G,≤ 0.026
16,C3A G7C G65C,≤ 0.026
17,U2G U4C A23C,≤ 0.026
18,C3A C75A,≤ 0.026
19,C3A C29A U71C,≤ 0.026
20,U2G G15U,≤ 0.026
21,U2C G67U,≤ 0.026
22,U2G C79G,≤ 0.026
23,U2G U8C G69C U76A,≤ 0.026
24,C3A C29U A87G,≤ 0.026

row,Variant,nonsense suppression
1,U2G U35A C56G G88A,≤ 0.026
2,U2G U17C,≤ 0.026
3,U2C U21G,≤ 0.026
4,U2G A62U C77U G85A,≤ 0.026
5,C3A C12A A13G A60C,≤ 0.026
6,C3A A24G A31C U76A,≤ 0.026
7,U2G A24U G61U A74C C81A,≤ 0.026
8,C3A G18U,≤ 0.026
9,C3A A62G,≤ 0.026
10,U2G U35A,≤ 0.026
11,C3A C11G U20A,≤ 0.026
12,C3A C64G U76G,≤ 0.026
13,U2G U8A C75A,≤ 0.026
14,U2G U57A G85A,≤ 0.026
15,U2C G25U A30C G59U A62U,≤ 0.026
16,U2G A23G G66A,≤ 0.026
17,U2C G26C C75U,≤ 0.026
18,U2G C12U A89C,≤ 0.026
19,U2C C5A C75U C83A,≤ 0.026
20,U2C U57A U63A C72G G73A C82G,≤ 0.026
21,U2C G66A C80A,≤ 0.026
22,U2C U4G A13U U22C A33G,≤ 0.026
23,C3A G18C G86A,≤ 0.026
24,C3A G15A,≤ 0.026

row,Variant,nonsense suppression
1,C3A C72U,≤ 0.026
2,C3A C72G,≤ 0.026
3,U2A U35C C77U C79A G86A,≤ 0.026
4,U2C C11U C79A,≤ 0.026
5,U2G U17A G18A U21A A74G,≤ 0.026
6,U2C C11U A33C,≤ 0.026
7,U2G A31G U63G C80G C81A,≤ 0.026
8,U2G U58G G85A,≤ 0.026
9,U2G U16G G19A A24G U57G G88C,≤ 0.026
10,U2G G66A U76G,≤ 0.026
11,U2G A13U G65A,≤ 0.026
12,C3A A89C,≤ 0.026
13,C3A A89U,≤ 0.026
14,U2C A24C,0.0326
15,U2C A24U,≤ 0.026
16,U2G U58A G86A,≤ 0.026
17,C3A A23C C75G C77A,≤ 0.026
18,U2G U58G C64A,≤ 0.026
19,U2G C11U C56A,≤ 0.026
20,U2G A14G U17A G73A,≤ 0.026
21,U2C C56G,≤ 0.026
22,U2G G7C U17A,≤ 0.026
23,U2C U22C C64A A74U G88U,≤ 0.026
24,U2C G84A,≤ 0.026

row,Variant,nonsense suppression
1,C3A A14G A24G U63C C80G,≤ 0.026
2,U2C C11G C12A C27U G66C,≤ 0.026
3,U2C U20A G78A,≤ 0.026
4,U2G G6A A30C G32U G67C G73C A87C,≤ 0.026
5,U2C C27U C83G,≤ 0.026
6,U2C A33U C34A G88U,≤ 0.026
7,U2G U16A C81G,≤ 0.026
8,U2C U21C G66U C77A,≤ 0.026
9,U2G U17C C27U C77A,≤ 0.026
10,C3A C12A A30C G85A,≤ 0.026
11,U2C U17G A33G,≤ 0.026
12,C3A A13G C75G,≤ 0.026
13,U2C A14U U57C,≤ 0.026
14,U2A U20G G26A A30G U57C G73U,≤ 0.026
15,C3A C82G,≤ 0.026
16,C3A A13C,0.0261
17,C3A A13U,0.0379
18,U2G C75A G84C,≤ 0.026
19,C3A C5G U21G A23G,≤ 0.026
20,U2G C3U A60U,≤ 0.026
21,U2G C3U G19A G66A,≤ 0.026
22,U2C C27U U55A C75A,≤ 0.026
23,U2C G65C G88C,≤ 0.026
24,U2G G19U C56G,≤ 0.026

row,Variant,nonsense suppression
1,C3A A33C U57G,≤ 0.026
2,U2G C3U A33G,≤ 0.026
3,U2G A13G A24G G59U C83A G84A,≤ 0.026
4,C3A A9G G78C,≤ 0.026
5,U2G C77G,≤ 0.026
6,U2C G32U,≤ 0.026
7,U2G C3U C72U,≤ 0.026
8,U2G G88U,≤ 0.026
9,U2G C64G,≤ 0.026
10,U2C A33G A74G G86U,≤ 0.026
11,U2G C11U G59U,≤ 0.026
12,C3A A24G A33G,≤ 0.026
13,U2G U35G G66A C82A C83G,≤ 0.026
14,U2C C11G U35G U57C,≤ 0.026
15,U2G U57C G78A C81U,≤ 0.026
16,U2C G10C C72G G84U A89U,≤ 0.026
17,U2C A9G C81G,≤ 0.026
18,U2G G25U,≤ 0.026
19,U2C C34U G86C,≤ 0.026
20,U2G A13G G26U C56G,≤ 0.026
21,U2C A31U,≤ 0.026
22,U2C A31G,0.0356
23,U2C A9C C75A,0.038
24,U2G G67A,≤ 0.026

row,Variant,nonsense suppression
1,U2C C11G A24G G84U,≤ 0.026
2,U2C G19C U35G G78U,≤ 0.026
3,U2C A14U U16G G25U G85C,≤ 0.026
4,U2C C3U A14C,≤ 0.026
5,C3A G10C C12G,≤ 0.026
6,U2C A9G G73A,≤ 0.026
7,U2C G6C C12U A60G G65A,≤ 0.026
8,U2C A30G C34A G65C,≤ 0.026
9,U2A U63C G73A,≤ 0.026
10,U2A U58G G59A G88C,≤ 0.026
11,U2C C29A A60C G67A,≤ 0.026
12,C3A G19C A87C,≤ 0.026
13,C3A A9U U17C U20C G32A,≤ 0.026
14,C3A G18A G73A C81G,≤ 0.026
15,U2C G65C,≤ 0.026
16,C3A A62C G65U,≤ 0.026
17,C3A G10U G86C,≤ 0.026
18,U2G C5A A30G,≤ 0.026
19,C3A A33U G73C,≤ 0.026
20,U2G A33C,≤ 0.026
21,U2G A33G,≤ 0.026
22,C3A A31U,≤ 0.026
23,U2G G65C,≤ 0.026
24,U2G G65A,≤ 0.026

row,Variant,nonsense suppression
1,U2G G10C G15U C29U A31U,≤ 0.026
2,C3A C29A A54U,≤ 0.026
3,U2C A9C G32U G85C,≤ 0.026
4,U2G U57A A62U,≤ 0.026
5,U2G G10A C11G U20G A33G,≤ 0.026
6,U2G U70A,≤ 0.026
7,U2G G59U C64G G78A,≤ 0.026
8,C3A G7U U35C C56A A87U,≤ 0.026
9,U2A U20A G69U U71G G88C,≤ 0.026
10,C3A C12A A33G G66C,≤ 0.026
11,U2A U35C,≤ 0.026
12,U2A U35G,≤ 0.026
13,U2G U4G,≤ 0.026
14,U2G G85A,≤ 0.026
15,U2G G85U,0.0411
16,U2G C12A,≤ 0.026
17,C3A A31G U76C G78U G86U,≤ 0.026
18,U2C G18A G25C C29G U58G,≤ 0.026
19,U2A U55G G78U,≤ 0.026
20,C3A G25A U57C,≤ 0.026
21,U2A U57G G66A,≤ 0.026
22,U2A U58G U71A G88A,≤ 0.026
23,C3A A87G,≤ 0.026

# Source: the RNAGym collection of RNA variant scans (doi:10.1101/gad.245936.114)
